Data published in PubChem BioAssay AID686978 (National Center for Advancing Translational Sciences (NCATS), 2013).
The whole screen tested about 420,000 compounds, of which about 64,000 (15%) were called active. This list was built around the results that the source calls inconclusive (neither active nor inactive); the mix of calls is not that of the screen. The call rests on the fitted dose curve; in most records, active means well fitted inhibition curve with a large enough effect; inconclusive means small, poorly fitted or top-dose-only effect; inactive means flat fitted curve, though single readings scatter. Potencies of inconclusive entries are left out as doubtful fits.

assay: qHTS for Inhibitors of human tyrosyl-DNA phosphodiesterase 1 (TDP1): qHTS in cells in absence of CPT; details: DT40 Tdp1-/- hTDP1 cells, no CPT, ATP luminescence, 48 h; activity change, negative = growth inhibition: at 46.2 µM (top of the series) unless noted; further: nearly all actives have a fitted effect of over 55% in size
How it was run: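 Readout: luminescence from CellTiter-Glo after 30 min in the dark at RT. Cells: DT40 Tdp1-/- with stable hTDP1, 400/well. Exposure: compounds alone, ≥48 hr, 37 °C.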
On the % scale 0 is the no-effect control and ±100 the full control effect; potency means the concentration at half of the fitted maximal effect; tags describe the fitted curve by direction and shape.

| Compound | Potency | activity change, negative = growth inhibition |
| --- | --- | --- |
| CN(c1ccccc1)c1nccc(=O)[nH]1 | inactive |  |
| CC1CCCCN1C(=O)CSc1nc(C2CC2)nc2ccccc12 (stereo unspecified) | inconclusive [inhibitor, single point] |  |
| Cc1ccc2[nH]c(=O)c(CN(CC3CCCO3)S(=O)(=O)c3c(C)ccc4nsnc34)cc2c1 (stereo unspecified) | inconclusive [inhibitor, single point] |  |
| COCCNC(=O)C1(C)CCCN(Cc2csc3ccccc23)C1 (stereo unspecified) | inconclusive [inhibitor, single point] |  |
| c1ccc(-c2cnnc(N3CCCCC3)n2)cc1 | inactive |  |
| COc1cccc(OC)c1C(=O)OCC(=O)NCCCc1ccccc1 | inconclusive [inhibitor, single point] |  |
| O=C(CCC1N=C2c3ccccc3N=C(SCc3ccc(Cl)cc3)N2C1=O)NCc1ccco1 (stereo unspecified) | inconclusive [inhibitor, single point] |  |
| CCOC(=O)N1CCC(NC(=O)CS(=O)(=O)Cc2nc(-c3cccc(Cl)c3)oc2C)CC1 | inactive |  |
| O=C(COC(=O)/C=C/c1ccc(Cl)cc1Cl)Nc1cc(C(F)(F)F)ccc1N1CCOCC1 | inactive |  |
| CC1(C)Oc2ccc(C(=O)N3CCOCC3)cc2N(CC(=O)Nc2ccccc2)C1=O | inactive |  |
| COc1ccc(CCN(C)C(=O)COc2ccc(C(=O)c3ccccc3)cc2)cc1OC |  | inconclusive: -30.3% [inhibitor] |
| COc1ccc(C(=O)NNC(=O)CSc2nc(C(C)C)nc3ccccc23)cc1 | inactive |  |
| CC(OC(=O)c1ccc(S(=O)(=O)N2CCCCC2)cc1)C(=O)NC1CCCCC1C (stereo unspecified) | inactive |  |
| CC(C)CC1C(=O)N(Cc2cn(Cc3ccco3)nn2)CCS(=O)(=O)N1Cc1ccc(-c2ccc(F)cc2)cc1 (stereo unspecified) | active: 16.4 µM |  |
| COc1ccc2nc3sc(C(=O)NCCCN4CCc5ccccc5C4)cc3cc2c1 | active: 16.4 µM |  |
| COc1ccc(S(=O)(=O)N(C)C[C@H]2Oc3ccc(NS(=O)(=O)c4ccc(F)cc4)cc3C(=O)N([C@H](C)CO)C[C@@H]2C)cc1 | inconclusive [inhibitor, single point] |  |
| Cc1cccc(C2=NN(c3ccccc3)[C@@H](C(=O)N3CCOC3=O)[C@@H]2c2ccccc2)c1 | inconclusive [inhibitor, single point] |  |
| CCn1c(SCC(=O)Nc2ccccc2F)nnc1-c1ccoc1C | inactive |  |
| C[C@@H]1CN([C@@H](C)CO)S(=O)(=O)c2ccc(-c3ccc(C#N)cc3)cc2O[C@@H]1CN(C)Cc1ccccn1 | active: 13 µM |  |
| CC(C)NC(=O)C1(C)CN(S(C)(=O)=O)CC(=O)N1C1CCCCCC1 (stereo unspecified) | inactive |  |
| Cc1ccc(-c2nc(-c3cccnc3)no2)c(C)c1 | inconclusive [inhibitor, partial curve] |  |
| CSc1nccc(Oc2cncc(Cl)c2)n1 | inconclusive [inhibitor, single point] |  |
| O=C(Nc1cc([N+](=O)[O-])ccc1F)c1ccc2ccccc2c1 | inconclusive [inhibitor, single point] |  |

| Compound | Potency | activity change, negative = growth inhibition |
| --- | --- | --- |
| O=C1NC(SCCCF)=N/C1=C/c1ccc(-n2cncn2)cc1 | inactive |  |
| COc1ccc(CNS(=O)(=O)NCc2ccccc2)cc1OC |  | inconclusive: -36.2% [inhibitor] |
| Cc1cc(C(=O)N/N=C/c2cccn2C)n[nH]1 | inactive |  |
| O=C(NCC1CCCO1)c1cc(C(=O)c2ccc(Cl)cc2Cl)c[nH]1 (stereo unspecified) | inconclusive [inhibitor, single point] |  |
| CCc1noc(C)c1C(=O)OCC(=O)N1CCc2ccccc21 | active: 2.31 µM |  |
| CCOc1ccc(Br)cc1CNCCSc1nnnn1-c1ccccc1 | inconclusive [inhibitor, single point] |  |
| CN1CC(=O)Nc2ccccc2C1=O | inactive |  |
| O=C(CN1CCN(S(=O)(=O)c2ccc(Br)cc2)CC1)Nc1ccc(F)cc1 | inconclusive [inhibitor, single point] |  |
| CC(=O)c1ccc(S(=O)(=O)N2CCC(c3nc4ccccc4[nH]3)CC2)cc1 | inconclusive [inhibitor, partial curve] |  |
| C[C@@H]1CN([C@H](C)CO)C(=O)CCCn2cc(nn2)CO[C@H]1CN(C)S(=O)(=O)c1ccccc1C#N | inactive |  |
| COc1cc(NC(=O)[C@@H]2CCCN(S(=O)(=O)c3cccc4cccnc34)C2)cc(OC)c1OC | active: 13 µM |  |
| c1ccc2sc(-c3ccc4c(c3)OCO4)nc2c1 | inconclusive [inhibitor, partial curve] |  |
| CC1CN(C(=O)C(C)N2CCN(c3ccccc3Cl)CC2)CC(C)O1 (stereo unspecified) | inconclusive [inhibitor, partial curve] |  |
| COc1cc(N2CCCC2)c(OC)cc1C=O | inconclusive [inhibitor, partial curve] |  |
| CCOC(=O)c1c(NC(=O)CSc2nnc(-c3c[nH]c4ccccc34)n2CCOC)sc2c1CCCCC2 | inconclusive [inhibitor, single point] |  |
| CCCCc1cc(=O)oc2cc(OC(C)C(=O)NCCN3CCOCC3)ccc12 (stereo unspecified) | inactive |  |
| CCS(=O)(=O)c1nc(S(=O)(=O)c2ccc(Cl)cc2)c(N2CCN(CCO)CC2)s1 | inconclusive [inhibitor, single point] |  |
| CC(=O)Nc1ccc(S(=O)(=O)N(C)CC(=O)NC2CCCCCCC2)cc1 | inconclusive [inhibitor, single point] |  |
| Cc1ccc(SCC(=O)NNC(=O)c2cncc(Br)c2)cc1 | inactive |  |
| CCOC(=O)c1ccc(NC(=O)C2CCN(S(=O)(=O)c3ccccc3)CC2)cc1 | inconclusive [inhibitor, single point] |  |
| COc1cccc(CNC(=O)C(Cc2ccccc2)n2cccc2)c1 (stereo unspecified) | inconclusive [inhibitor, partial curve] |  |
| Cc1sc2ncnc(N3CCC(C(=O)Nc4ccc(OC(F)F)c(Cl)c4)CC3)c2c1C | inconclusive [inhibitor, single point] |  |
| Cc1cc(C)n(C2CC(=O)N(c3ccc(C)c(Cl)c3)C2=O)n1 (stereo unspecified) | inactive |  |
